Reference: PubChem BioAssay AID504832 (National Center for Advancing Translational Sciences (NCATS), 2011)
Among all 310,000 compounds or so, about 18,000 (5.8%) were called active. The shares of active, inactive and inconclusive entries below differ from those in the screen. Calls come from the whole dose curve; as a rule, active = well fitted inhibition curve with a large enough effect; inconclusive = small, poorly fitted or top-dose-only effect, or another doubt; inactive = no such curve, though single readings can be large or run the other way. No potency is given beside an inconclusive call; the fits are too rough.

assay: Primary qHTS for delayed death inhibitors of the malarial parasite plastid, 48 hour incubation; conditions: P. falciparum luciferase growth in erythrocytes; series mostly up to 28.7 µM; activity change, negative = inhibition: at the top concentration
In short: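 Luminescence readout; reporter = integrated firefly luciferase in P. falciparum. RBC culture at 2% hematocrit, 0.1% parasitemia final, 37 C/5% CO2; decreased signal taken as growth inhibition.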
% is set by controls: 0 for no effect and ±100 for the full control effect; potency is the fitted concentration of half-maximal effect; tags give direction and shape of the fitted curve.

SMILES | Potency | activity change, negative = inhibition
COc1ccc(CCNC(=O)c2cc3c(=O)n4ccccc4nc3n(CCN3CCOCC3)c2=N)cc1 | inconclusive [inhibitor, full curve] | –
O=C(CN(C(=O)c1csnn1)c1cccc(Cl)c1)NC1CCCCC1 | – | inactive: -6.6%
O=C(Nc1ccc2oc(-c3ccncc3)nc2c1)c1ccc([N+](=O)[O-])o1 | active: 6.57 µM | –
FC(F)(F)c1cc(Oc2ccc(Cl)cc2)ncc1-c1nnc(-c2ccc(Cl)cc2)o1 | inconclusive [inhibitor, single point] | –
CCOc1ccc(-n2c(-c3ccccc3)c[nH]c2=S)cc1 | inconclusive [inhibitor, single point] | –
COc1ccc(-c2nn(CCC#N)cc2C(=O)Nc2ccccc2Br)cc1[N+](=O)[O-] | inconclusive [inhibitor, single point] | –
COc1ccc(-c2cc3ncc(-c4ccccc4)c(N)n3n2)cc1 | – | inactive: 211%
CC(=O)Oc1ccc(/C=C2\N=C(C3CCCCC3)OC2=O)cc1 | – | inactive: 9.29%
C[C@H](NC(=O)c1nc[nH]c1C(=O)NC(c1ccccc1)c1ccccc1)C(=O)OCc1ccccc1 | active: 10.4 µM | –
Cc1ccc2[nH]c3c(c2c1)CN(C(=O)CN1C[C@H]2C[C@@H](C1)c1cccc(=O)n1C2)CC3 | inconclusive [inhibitor, full curve, poor fit] | –
Cc1ccc(S(=O)(=O)N(C)C)cc1NC(=S)NC(C)CCCC(C)C (stereo unspecified) | inconclusive [inhibitor, single point] | –
Cc1nn(Cc2ccccc2)c(Cl)c1C(=O)OCC(=O)Nc1cccc2ccccc12 | – | inactive: 13.4%
CCc1ccc(-c2cc(C(=O)N3N=C(C(F)F)CC3(O)C(F)F)c3ccccc3n2)cc1 (stereo unspecified) | inconclusive [inhibitor, partial curve, poor fit] | –
Cc1ccc(NC(=O)c2ccccc2-c2cc(C)no2)cc1 | inconclusive [inhibitor, single point] | –
CN(CC(=O)Nc1ccccc1Cl)C(=O)COC(=O)/C=C/c1cccc(C(F)(F)F)c1 | inconclusive [inhibitor, single point] | –
Cc1ccc(Cl)cc1N1CCN(C(=O)c2ccccc2SCC(=O)N2CCCC2)CC1 | inconclusive [inhibitor, single point] | –
CCCCn1c(N)c(C(=S)NC(=O)CC(C)(C)C)c(=O)n(C)c1=O | – | inactive: 13.4%
Cc1ccc(C(=O)OCc2cn3ccccc3n2)cc1 | – | inactive: 71%
O=C(OCC(=O)N1CCCC1)c1ccc(S(=O)(=O)Nc2ccccc2)cc1 | – | inactive: -6.16%
COc1ccc(/C=N/NC(=O)c2ccccc2NC(=O)c2ccco2)c(OC)c1 | – | inactive: 22%
COc1ccc(C(=O)CSc2nnc(-c3cc(C)cc(C)c3)o2)cc1 | – | inactive: 24.7%
CC(=O)Nc1ccc(SCC(=O)c2ccc(Br)s2)cc1 | – | inactive: 37.3%
O=C(NCc1csc(-c2cccs2)n1)c1ccsc1 | – | inactive: 71.4%

SMILES | Potency | activity change, negative = inhibition
CCOC(=O)C1C(=O)C=C(C)C(C(=O)OCC)C1c1ccc(OC)cc1 (stereo unspecified) | inconclusive [inhibitor, partial curve] | –
COc1ccc(CCNS(=O)(=O)c2ccc3c(c2)oc(=O)n3C)cc1OC | – | inactive: -8.17%
CCc1cccc(NC(=S)N(CCN(C)C)C(C)c2ccncc2)c1 (stereo unspecified) | inconclusive [inhibitor, partial curve, poor fit] | –
O=C(COC(=O)c1c(Cl)cccc1Cl)Nc1cccc(S(=O)(=O)NC2=NCCCCC2)c1 | inconclusive [inhibitor, single point] | –
N#C/C(=C\c1ccc(Sc2ccccc2)o1)c1nc2ccccc2[nH]1 | inconclusive [inhibitor, full curve, poor fit] | –
Cc1cc2cc3c(cc2nc1SCC(=O)N1CCN(C(=O)c2ccco2)CC1)OCO3 | active: 13.1 µM | –
CCOC(=O)NC1(C(F)(F)F)C(=O)N(Cc2ccccc2)C2=C1C(=O)CC(C)(C)C2 (stereo unspecified) | – | inactive: 52.8%
Cc1cc(C)n(C(=O)Cn2nc([N+](=O)[O-])c(Br)c2C)n1 | – | inactive: -6.12%
O=C(NC1CCCCC1)c1cc2ccccc2cc1O | active: 5.22 µM | –
COCCn1c(-c2ccc(F)cc2)nc2oc3cc(OC)ccc3c(=O)c2c1=O | inconclusive [inhibitor, partial curve, poor fit] | –
CCOc1ccc(N(C)Cc2cc(=O)oc3ccc(OC)cc23)cc1 | – | inactive: -9.2%
Cc1ccc(-c2nnc3sc(CCc4ccccc4)nn23)cc1 | inconclusive [inhibitor, partial curve, poor fit] | –
COc1ccc(-c2cc3cc(OC)c(OC)cc3c(C)n2)cc1C | inconclusive [inhibitor, partial curve] | –
O=c1[nH]c(SCc2cccc(F)c2)nc2ccccc12 | inconclusive [inhibitor, partial curve, poor fit] | –
COC(=O)c1cc(C(=O)OCC(=O)NCc2cccs2)cc([N+](=O)[O-])c1 | – | inactive: -16.1%
CC(C)CNC(=O)CSc1ccc(S(=O)(=O)N(C)C2CCCCC2)cn1 | active: 9.28 µM | –
CC(OC(=O)c1ccccc1NS(=O)(=O)c1cccc(C(F)(F)F)c1)C(=O)N(C)Cc1ccccc1 (stereo unspecified) | inconclusive [inhibitor, single point] | –
S=C(NCc1ccccc1)Nc1ccncc1 | inconclusive [inhibitor, partial curve, poor fit] | –
CC(C)(C)NC(=O)Cn1c(SCC(=O)NCc2cccs2)nc2ccccc21 | inconclusive [inhibitor, partial curve] | –
Cc1ccccc1CCNC(=O)c1ccc(Cl)c(S(=O)(=O)N2CC(C)OC(C)C2)c1 (stereo unspecified) | active: 13.1 µM | –
Cc1cccc(C(=O)NNC(=O)CSc2nnc(C(C)C)n2C)c1 | inconclusive [inhibitor, full curve] | –
COC1CCCN(Cc2c(C(=O)N3CCc4ccccc4C3)nc3ccc(Cl)cn23)C1 (stereo unspecified) | inconclusive [inhibitor, single point] | –
Cc1sc(NC(=O)CN2CCOCC2)nc1-c1ccc2c(c1)CCN2S(=O)(=O)c1ccccc1 | active: 11.7 µM | –
